The record followed here is patent US12331094B2 (Bayer Aktiengesellschaft, priority 2018, dated 2025).

The experiment addresses T1, human NPRA (hNPRA) (Homo sapiens, UniProt P16066).
T1 construct: expressed in transfected cells
T1 sequence (P16066 33-1061): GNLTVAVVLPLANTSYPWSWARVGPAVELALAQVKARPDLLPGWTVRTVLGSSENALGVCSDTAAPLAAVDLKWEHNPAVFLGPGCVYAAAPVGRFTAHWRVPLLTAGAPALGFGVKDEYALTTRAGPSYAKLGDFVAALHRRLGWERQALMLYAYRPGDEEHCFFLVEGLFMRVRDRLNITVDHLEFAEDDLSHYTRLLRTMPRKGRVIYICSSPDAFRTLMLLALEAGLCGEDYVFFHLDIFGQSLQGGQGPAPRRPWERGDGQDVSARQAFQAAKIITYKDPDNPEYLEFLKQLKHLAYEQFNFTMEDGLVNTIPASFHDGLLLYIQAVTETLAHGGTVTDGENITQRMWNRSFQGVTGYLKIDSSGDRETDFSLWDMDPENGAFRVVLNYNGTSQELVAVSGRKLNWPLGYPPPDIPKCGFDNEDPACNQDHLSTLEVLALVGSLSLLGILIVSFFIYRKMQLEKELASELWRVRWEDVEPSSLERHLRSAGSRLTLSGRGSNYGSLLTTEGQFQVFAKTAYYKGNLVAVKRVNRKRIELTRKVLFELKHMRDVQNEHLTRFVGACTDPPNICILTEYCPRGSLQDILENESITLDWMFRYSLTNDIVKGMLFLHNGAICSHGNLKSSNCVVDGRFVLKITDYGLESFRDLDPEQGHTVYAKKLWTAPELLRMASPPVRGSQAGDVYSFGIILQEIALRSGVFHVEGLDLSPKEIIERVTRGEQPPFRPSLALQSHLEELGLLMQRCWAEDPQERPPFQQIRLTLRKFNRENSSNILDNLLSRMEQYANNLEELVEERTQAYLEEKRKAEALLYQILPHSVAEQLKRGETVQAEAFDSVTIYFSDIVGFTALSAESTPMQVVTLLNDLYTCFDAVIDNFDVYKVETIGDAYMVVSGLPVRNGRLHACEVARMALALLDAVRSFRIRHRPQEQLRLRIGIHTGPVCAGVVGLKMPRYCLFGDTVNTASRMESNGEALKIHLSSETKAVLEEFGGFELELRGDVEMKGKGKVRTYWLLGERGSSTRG
Briefly: cGMP quantification (HTRF) on stable hNPRA-CHO k1 cells (res, ics, pcs samples). It is filed as cell-based. To be noted: for activity on hNPRA cells / qualit. activity on hNPRA: BNP engrafted constructs; for qualit. activity on hNPRA: purified compound samples; for qualit. activity of corresp. ANP cpd.: value of the ANP engrafted construct with same integration locus and N-/C-terminal sequence (named in Table 5). How it is done: All activities shown in Tables 7 and 8 were measured on cells with heterologous over expression of human NPRA (hNPRA) by use of a cGMP quantification assay conducted according to manufacturer's instructions (cisbio; 62GM2PEH). In brief, the assay quantifies cGMP in buffered solution or cell-culture supernatants based on the competition between cGMP produced by the cell as result of the NPRA stimulation through the (natriuretic peptide) sample and d2 labelled cGMP for binding to a Cryptate labelled antibody. Sample cGMP and d2 labeled cGMP compete for binding to a limited number of sites on Cryptate labeled anti-cGMP antibodies, and consequently, HTRF® specific fluorescent signal (i.e. energy transfer) is inversely proportional to the concentration of cGMP in the sample.
Dose-response curve data were analyzed with GraphPad Prism (version 7.00 for Windows, GraphPad Software, La Jolla California USA) and EC50 were fitted according to Y=Bottom+(Top−Bottom)/(1+10^((Log EC50−X)*HillSlope)) applying constraints for bottom, top and slope (shared value for all data sets of the respective experiment).
The raw compound sample activity on stable hNPRA-CHO k1 cells was first assessed by comparison to the negative control TPP-5657 and to a positive sample, in particular TPP-5661. Controls and res were tested in quadruplets in two concentrations with a relative dilution factor of 5 aiming for a fluorescent signal (s) in the dynamic range of the assay. […] Values listed in Table 7, columns “activity res” and “stdev activity res”, represent the average of the results for the two concentrations and the respective standard deviation. Res signals less than half of the signal of the reference compound TPP-5661 (36%) were assessed as not active (n.a.).
The activity of several raw compound samples on stable hNPRA-CHO k1 cells was reassessed by comparison to reference sample TPP-5661 in 2.5-fold dilution series (8 concentrations) starting with a 5-fold dilution. The “log EC50” fit value as activity measure of the res was set in relation to the corresponding value of the reference res TPP-5661 by calculating the delta “log EC50” _compound−“log EC50” _TPP-5661; resulting values are listed in Table 7, column “rel. activity res”. […] All samples were applied in quadruplets.
The activity of isolated compound samples on stable hNPRA-CHO k1 cells was assessed by EC50 determination and comparison to reference sample TPP-5661. Samples were tested in 2.5-fold dilution series from 80 nM to 0.13 nM. The log EC50 fit value as activity measure of the ics was set in relation to the corresponding value of the reference ics TPP-5661 (−8.8) by calculating the delta log EC50_compound−log EC50_TPP-5661; resulting values are listed in Table 7, column “rel. log EC50 ics”. All samples were applied in quadruplets.
The activity of purified compound samples on stable hNPRA-CHO k1 cells was assessed in multiple experiments by EC50 determination and comparison to reference sample TPP-5661. Samples were tested in dilution series at least in quadruplets. […] The log EC50 fit value as activity measure of the pcs was set in relation to the corresponding value of the reference TPP-5661 in the respective experiment (in average −9.2, standard deviation 0.5) by calculating the delta log EC50_compound−log EC50_TPP-5661.
Compounds showing an activity in res without confirmation as ics or pcs are marked with an unified “y”, and compounds assessed as not active (“n.a.” in column “activity res”) probably due to their very low expression level (≤1 μg/ml, “n.e.” in column “μg/ml res”) are marked accordingly.
On the technique in general: Time-resolved FRET reads energy transfer from a long-lived donor to a nearby acceptor.

The mark [1] stands for this setting: ANP engrafted constructs, summarized assessment relative to TPP-5661 (excerpt of Table 7).
[2] abbreviates: summarized qualitative assessment over res, ics, pcs (CHO and HEK293) data.

B1: 61: ANP engrafted antibody, CDRH2 (antibody)
heavy: EVQLLESGGGLVQPGGSLRLSCAASGFTFSSYAMSWVRQAPGKGLEWVSAISGTSASLAITGPDGGSGGSLRRSSCFGGRMDRIGAQSGLGCNSFRYGSDRFSGSKSGGSTYYADSVKGRFTISRDNSKNTLYLQMNSLRAEDTAVYYCAKLTGAEYFQHWGQGTLVTVSS[here human IgG1 constant region without letters]
light: QSVLTQPPSVSGAPGQRVTISCTGSSSNIGAGYDVHWYQQLPGTAPKLLIYGNSNRPSGVPDRFSGSKSGTSASLAITGLQAEDEADYYCQSYDSSLSGVVFGGGTKLTVLGQPKAAPSVTLFPPSSEELQANKATLVCLISDFYPGAVTVAWKADSSPVKAGVETTTPSKQSNNKYAASSYLSLTPEQWKSHRSYSCQVTHEGSTVEKTVAPTECS
Regarding B1, the qualit. activity entry under setting [1] is reported as “++ (relative log EC50<0.7 were assessed as very active)” and the qualit. activity entry under setting [2] is on record as “++ (relative log EC50<0.7 were assessed as very active)”. Further, the “activity after compound preparation (pcs)” value (purified compound samples (pcs)) was “shown”. Further, under “raw compound samples (res), stable hNPRA-CHO k1 cells”, the activity as res result is “no activity”.

B2: B1: BNP (Hum28aa) engrafted antibody, CDRH3 (antibody)
heavy: EVQLLESGGGLVQPGGSLRLSCAASGFTFSSYAMSWVRQAPGKGLEWVSAISGSGGSTYYADSVKGRFTISRDNSKNTLYLQMNSLRAEDTAVYYCTSVHQETKKYQSSPDGGSGGMVQGSGCFGRKMDRISSSSGLGCKVLRRGSYSYTYNYEWHVDVWGQGTLVTVSS[here human IgG1 constant region without letters]
light: B1 light
As to B2, the “activity on hNPRA cells” value is “significant activity”. For the same molecule, the “qualit. activity on hNPRA” value (stable hNPRA-CHO k1 cells) is given as “++ (relative log EC50<0.7 were assessed as very active)”.

B3: 4: ANP engrafted antibody, CDRH1 (antibody)
heavy: EVQLLESGGGLVQPGGSLRLSCAASGFTFGSGSGSGGSGGSLRRSSCFGGRMDRIGAQSGLGCNSFRYGGSGGSGSGSGMSWVRQAPGKGLEWVSAISGSGGSTYYADSVKGRFTISRDNSKNTLYLQMNSLRAEDTAVYYCAKLTGAEYFQHWGQGTLVTVSS[here human IgG1 constant region without letters]
light: B1 light
In the case of B3, the qualit. activity entry is “++ (relative log EC50<0.7 were assessed as very active)” under setting [1] and “++ (relative log EC50<0.7 were assessed as very active)” under setting [2].

B4: Compound 9: ANP engrafted antibody, CDRH1 (antibody)
heavy: EVQLLESGGGLVQPGGSLRLSCAASGFTFGSGSGSGSGSGSPDGGSGGSLRRSSCFGGRMDRIGAQSGLGCNSFRYGSYGSGSGSGSGSGMSWVRQAPGKGLEWVSAISGSGGSTYYADSVKGRFTISRDNSKNTLYLQMNSLRAEDTAVYYCAKLTGAEYFQHWGQGTLVTVSS[here human IgG1 constant region without letters]
light: B1 light
In the case of B4, the “qualit. activity of corresp. ANP cpd.” value is recorded as “++ (relative log EC50<0.7 were assessed as very active)”. Also, under setting [1], the qualit. activity entry was “++ (relative log EC50<0.7 were assessed as very active)”. The qualit. activity entry under setting [2] is “++ (relative log EC50<0.7 were assessed as very active)”.

B5: 80: ANP engrafted antibody, CDRH2 (antibody)
heavy: EVQLLESGGGLVQPGGSLRLSCAASGFTFSSYAMSWVRQAPGKGLEWVSAISGSTYISNVNHKPDGGSGGSLRRSSCFGGRMDRIGAQSGLGCNSFRYGSNTKVDKKVEGGSTYYADSVKGRFTISRDNSKNTLYLQMNSLRAEDTAVYYCAKLTGAEYFQHWGQGTLVTVSS[here human IgG1 constant region without letters]
light: B1 light
For B5, the “qualit. activity of corresp. ANP cpd.” value was “++ (relative log EC50<0.7 were assessed as very active)”. Moreover, under setting [1], the qualit. activity result is on record as “++ (relative log EC50<0.7 were assessed as very active)”. In addition, the qualit. activity result under setting [2] is recorded as “++ (relative log EC50<0.7 were assessed as very active)”.

B6: B5: BNP (Hum28aa) engrafted antibody, CDRH2 (antibody)
heavy: EVQLLESGGGLVQPGGSLRLSCAASGFTFSSYAMSWVRQAPGKGLEWVSAISGSVVVTSHQAPGGGSGGMVQGSGCFGRKMDRISSSSGLGCKVLRRGEKKKLKSLAYGSTYYADSVKGRFTISRDNSKNTLYLQMNSLRAEDTAVYYCAKLTGAEYFQHWGQGTLVTVSS[here human IgG1 constant region without letters]
light: B1 light
B6: the “activity on hNPRA cells” value was “significant activity”. Further, the “qualit. activity on hNPRA” value (stable hNPRA-CHO k1 cells) is on record as “++ (relative log EC50<0.7 were assessed as very active)”.

B7: 94: ANP engrafted antibody, CDRH2 (antibody)
heavy: EVQLLESGGGLVQPGGSLRLSCAASGFTFSSYAMSWVRQAPGKGLEWVSAISGPNPNPNPNPNSPDGGSGGSLRRSSCFGGRMDRIGAQSGLGCNSFRYGSYNPNPNPNPNPGSTYYADSVKGRFTISRDNSKNTLYLQMNSLRAEDTAVYYCAKLTGAEYFQHWGQGTLVTVSS[here human IgG1 constant region without letters]
light: B1 light
With B7, the “qualit. activity of corresp. ANP cpd.” value is “+++ (highest activities were observed at relative log EC50 below −0.7)”. The qualit. activity result under setting [1] is “+++ (highest activities were observed at relative log EC50 below −0.7)”. Also, under setting [2], the qualit. activity entry is “+++ (highest activities were observed at relative log EC50 below −0.7)”.
